Test results published in PubChem BioAssay AID485344 (National Center for Advancing Translational Sciences (NCATS), 2010).
Out of some 340,000 compounds screened, about 6,900 (2%) were called active. No stated cut-off is given here; in the data, active means inhibition above about 30%; inactive means below that, where a call was filed. The list shows a part of the results, in another mix than the full data. Where no call is shown, the source filed none.
Further: 0% is about no effect.

What follows are molecules tested against D(2) dopamine receptor (Homo sapiens) (UniProt P14416) (assay: HTS Assay for Allosteric Antagonists of the Human D2 Dopamine Receptor: Primary Screen for Antagonists). Settings: HEK293 TREx D2 cells, calcium flux, dopamine EC80; at 10 µM; stronger effect = higher value.
Chain of UniProt P14416 (P14416 whole entry, looked up): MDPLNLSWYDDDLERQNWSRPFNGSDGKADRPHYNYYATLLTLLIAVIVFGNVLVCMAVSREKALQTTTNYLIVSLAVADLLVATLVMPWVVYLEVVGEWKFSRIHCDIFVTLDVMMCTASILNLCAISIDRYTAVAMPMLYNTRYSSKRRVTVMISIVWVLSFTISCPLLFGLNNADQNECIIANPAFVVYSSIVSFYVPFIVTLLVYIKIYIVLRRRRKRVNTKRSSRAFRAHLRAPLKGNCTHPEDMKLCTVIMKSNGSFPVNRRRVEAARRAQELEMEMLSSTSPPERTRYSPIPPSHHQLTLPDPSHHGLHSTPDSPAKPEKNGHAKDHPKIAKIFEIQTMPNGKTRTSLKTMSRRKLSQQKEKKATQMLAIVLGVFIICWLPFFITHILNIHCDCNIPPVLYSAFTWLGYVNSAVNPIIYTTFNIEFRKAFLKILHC
In short: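 Read-out: kinetic calcium fluorescence (1 cycle/s) in inducible HEK293 T-REx D2 cells after an EC80 dopamine addition that followed 180 s compound preincubation. Loss of the dopamine response indicates antagonism.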
In the case of `COc1ccccc1N1CCN(Cc2nc(N)nc(Nc3ccc(C)c(Cl)c3)n2)CC1`, the inhibition is reported as active: 54.8%. Work on `CCN(CC)C(=O)Cn1c(=O)n(CCc2ccccc2)c(=O)c2ccccc21` yielded an inhibition of -2.51%. `Cc1cc(Nc2ccc(Br)c(C)c2)n2nc(-c3ccco3)nc2n1` showed an inhibition of 12.1%. `COc1cc(O)cc2cc3c(c(O)c12)C(=O)CC(C)(O)O3` (stereo unspecified) was tested, and the inhibition was active: 36.9%. In the case of `COc1ccc(S(=O)(=O)NCC(c2ccc(N(C)C)cc2)N2CCc3ccccc32)cc1F` (stereo unspecified), the inhibition is reported as 5.85%. In the case of `Cc1cc(C)n2nc(CNS(=O)(=O)c3ccccc3)nc2n1`, the inhibition is reported as 6.16%. `CCOC(=O)c1ccccc1NC(=O)COC(=O)CC(C)(C)CC1=NS(=O)(=O)c2ccccc2N1` gave an inhibition of 10.9%. With `Cc1cc2nc(CCN(C(=S)NCC3CCCO3)C3CCCC3)[nH]c2cc1C` (stereo unspecified) the inhibition was active: 31.2%. With `COc1cccc(NC(=O)c2oc3ccc(S(=O)(=O)N4CCCCCC4)cc3c2C)c1` the inhibition was -17.6%. `Cc1ccc(NC(=O)c2ccc3snnc3c2)cc1C` showed an inhibition of 6.83%. With `COc1ccccc1NC(=O)C1CCCN(c2ncnc3onc(-c4ccc(F)cc4)c23)C1` (stereo unspecified) the inhibition was 0.387%. In the case of `CCC(C)NC(=O)c1c(C)oc2nc(C)nc(N3CCOCC3)c12` (stereo unspecified), the inhibition is reported as -9.29%. With `CCOC(=O)C(C)Sc1nc(-c2ccccc2)ccc1C#N` (stereo unspecified) the inhibition was 9.26%. `COc1cccc(NC(=O)C2CCN(S(=O)(=O)c3ccc4[nH]c5c(c4c3)CCCCC5)CC2)c1` gave an inhibition of -2.85%. `COC(=O)c1ccccc1NC(=O)c1nn(-c2ccc(OC)cc2)c(=O)c2c1c1ccccc1n2C` gave an inhibition of 8.81%. `COc1cccc(NC(=O)CN(c2cccc(OC)c2)S(C)(=O)=O)c1` was tested, and the inhibition was active: 38.1%. `COc1ccc(-c2cc(C(=O)NCCc3ccc(OC)c(OC)c3)c3c(-c4ccc(F)cc4)[nH]nc3n2)cc1` showed an inhibition of 2.28%. `CCOC(=O)c1ccc(NC(=O)Cn2c3ncccc3c(=O)n2-c2ccc(C)c(C)c2)cc1` was tested, and the inhibition was -4.15%. In the case of `CC1(C(=O)OCC(=O)NC(=O)NCc2ccccc2)CC1(Cl)Cl` (stereo unspecified), the inhibition is reported as active: 31.3%. Work on `CC(C)CCNC(=O)C(=O)Nc1c2c(nn1-c1ccc(Cl)cc1)CSC2` yielded an inhibition of -11.3%. For `c1ccc(-c2cc3c(NCC4COc5ccccc5O4)ncnc3s2)cc1` (stereo unspecified), the inhibition was active: 31.8%. Work on `CC(=O)Nc1cccc(NC(=O)CSc2ccc(-c3sc(-c4ccccc4)nc3C)nn2)c1` yielded an inhibition of -15.4%. `O=C(O)CCc1ccc(-c2ccccc2)n1-c1ccc(C(=O)O)cc1` showed an inhibition of -5.17%. In the case of `COc1cc(OC)c2c(-c3ccccc3)cc(=O)oc2c1C(CC(=O)N1CCOCC1)c1ccc(N(C)C)cc1` (stereo unspecified), the inhibition is reported as active: 31.2%. `Cc1cccc(Nc2nnc(-c3ccc(C)c(S(=O)(=O)N4CCN(C)CC4)c3)c3ccccc23)c1` showed an inhibition of 10.9%. Work on `Cc1ccc(Cl)cc1NC(=O)Cn1c(=O)n(C(C)C)c(=O)c2oc3ccccc3c21` yielded an inhibition of 11.7%. In the case of `Cc1nn2c(=O)cc(COC(=O)c3cccc(NC(=O)c4ccc(F)cc4)c3)nc2s1`, the inhibition is reported as -9.25%. `Cc1cccc(C(C)C)c1NC(=O)c1ccc2c(c1)CCN2S(C)(=O)=O` gave an inhibition of 22.8%. With `CCOc1ccccc1CNC(=O)C1CCN(S(=O)(=O)c2c(C)noc2/C=C/c2ccccc2F)CC1` the inhibition was 8.36%. `CCn1c(C(=O)NCc2ccccc2OC)cc2sccc21` gave an inhibition of 5.1%. In the case of `COc1ccc(CC(=O)Nc2cc(-c3cn4cccnc4n3)ccc2C)cc1OC`, the inhibition is reported as 4.79%. With `CC1=C(c2ccc(C(C)C)cc2)S(=O)(=O)N=C1N1CCC(C(=O)NCc2ccccc2)CC1` the inhibition was -7.39%. `COc1ccc(-n2ccnc(NCc3cccs3)c2=O)cc1OC` was tested, and the inhibition was 1.35%. `COCCn1ccc2c(OCC(=O)Nc3c(C)cc(C)cc3C)cccc2c1=O` gave an inhibition of 9.79%. With `COCCCNC(=O)Cn1nc(N2CCN(c3ccccc3)CC2)ccc1=O` the inhibition was -0.555%. Work on `Cn1c(-n2cccc2)c(-c2c(-c3ccc(F)cc3)[nH]c3c2c(=O)n(C)c(=O)n3C)c(=O)n(C)c1=O` yielded an inhibition of 3.32%. With `Cc1ccc(S(=O)(=O)n2nc(-c3ccc(Cl)cc3)nc2NCc2ccccc2)cc1` the inhibition was 4.16%. For `CC1CCc2c(sc3nnn(Cc4cccc(C(=O)OC(C)C)c4)c(=O)c23)C1` (stereo unspecified), the inhibition was 15.3%. For `CN(C)CC/C=C1\c2ccccc2COc2ccccc21`, the inhibition was active: 50.7%. `O=C1CSc2ccc(S(=O)(=O)NCc3ccc(Cl)cc3)cc2N1` was tested, and the inhibition was active: 36%. With `CC(C)=CCC/C(C)=C/C(=O)O` the inhibition was active: 55.4%. Molecule `CC(=O)N1CCc2c(sc3c2c(=O)n(-c2ccc(F)cc2)c(=O)n3Cc2ccc(C#N)cc2)C1` has an inhibition of 2%. With `O=C(Nc1cccc(C(F)(F)F)c1)c1cc(-c2ccc(Cl)s2)nc2ccccc12` the inhibition was -5.71%. Molecule `O=C(O)Cn1c(-c2cccs2)cc2cc(Cl)ccc21` has an inhibition of 15%. `O=C(Nc1cccs1)Nc1ccc(F)cc1F` showed an inhibition of -26%. `O=C(Nc1nnc(SCc2ccc(F)cc2)s1)c1cnccn1` was tested, and the inhibition was active: 33.4%. Molecule `COc1cccc(COC(=O)c2ccc(-c3nnn(Cc4cccc(OC)c4)n3)cc2)c1` has an inhibition of 5.75%. In the case of `CCOc1ccc(NC2SC(=O)N(Cc3ccccc3)C2=O)cc1` (stereo unspecified), the inhibition is reported as 1.33%. `COc1ccccc1OCCCCN1CCN(C(c2ccccc2)c2ccccc2)CC1` was tested, and the inhibition was active: 61%. For `Cc1ccccc1Cn1cnc2c(NS(C)(=O)=O)c(C)c(C)cc21`, the inhibition was active: 34.8%. `CCCCN(CC)C(=O)CSc1nc2n[nH]c(C)c2c(=N)n1-c1cccc(C)c1` gave an inhibition of 0.5%. Work on `COc1cccc2c1cc1c(=O)n(CC(=O)N3CCN(c4cccc(C(F)(F)F)c4)CC3)nc(C)n12` yielded an inhibition of 24.5%. Molecule `CCOc1ccccc1NC(=O)C(CC(C)C)NC(=O)C1CCC(C)CC1` (stereo unspecified) has an inhibition of 12.1%. `Cc1ccc(NC(=O)CCc2c(C)nn(-c3ccc(N4CCOCC4)nn3)c2C)c(C)c1` was tested, and the inhibition was -4.32%. Work on `O=C(COc1ccccc1Cl)Nc1nnc(S(=O)(=O)N2CCCC2)s1` yielded an inhibition of -11.5%. Molecule `COc1ccc(-n2nc3ccc(NC(=O)c4ccc(C#N)cc4F)cc3n2)cc1Cl` has an inhibition of -3.87%. For `O=C(NCc1ccccc1)c1nc(S(=O)(=O)Cc2ccc(F)cc2)ncc1Cl`, the inhibition was -10.6%. Molecule `CCOc1ccc(C2C(C(=O)Nc3ccccc3)=C(C)Nc3nc(SCc4cccc(OC)c4)nn32)cc1` (stereo unspecified) has an inhibition of -9.64%. With `COc1ccc(NC2c3ccccc3C(=O)N2c2ccccn2)cc1` (stereo unspecified) the inhibition was active: 41.1%. For `Cc1ccc(/C=C/c2onc(C)c2S(=O)(=O)N2CCC(C(=O)N3CCN(c4cccc(C)c4)C(C)C3)CC2)cc1` (stereo unspecified), the inhibition was 21%. `CC(C)CCOc1ccc(C2N=C(N)Nc3nc4ccccc4n32)cc1` (stereo unspecified) showed an inhibition of 11%. With `CCc1ccc(OCc2nc(-c3ccc(-n4cccc4)cc3)no2)cc1` the inhibition was 4.25%. `CCc1nc(-c2cc(S(=O)(=O)N3CCN(c4ccc(OC)cc4)CC3)ccc2OC)no1` was tested, and the inhibition was -17.2%. In the case of `Cc1nn(C(C)C(=O)NC2CCC(C)CC2)c(=O)c2c1sc1ccccc12` (stereo unspecified), the inhibition is reported as 15.5%. `CCOc1ccc(-c2cn3c(n2)sc2cc(C(=O)NCCc4ccc(OC)cc4OC)ccc23)cc1` showed an inhibition of 10.4%. For `O=S(=O)(NCCc1csc2nc(-c3ccccc3)nn12)c1cccs1`, the inhibition was -1.09%. For `CC1CN(C(=O)CCC(=O)NCc2cccc(Cl)c2)c2ccccc2S1` (stereo unspecified), the inhibition was 6.72%. Work on `CC1CCN(CC2CCN(C(=O)NCc3ccc(F)cc3)CC2)CC1` yielded an inhibition of -28.4%. `O=C(O)c1ccc(Cn2cnc3cccnc32)cc1` was tested, and the inhibition was 26.3%. Work on `COc1ccc(S(=O)(=O)c2cnc3cc(OC)c(OC)cc3c2N2CCCC(C)C2)cc1` (stereo unspecified) yielded an inhibition of 21%. `COc1ccccc1C(=O)N(Cc1nc(-c2cccc(C)c2)no1)C(C)C` was tested, and the inhibition was 20.7%. For `COc1ccc(C2=C(Nc3ccc(Br)c(C)c3)c3ccccc3C2=O)cc1`, the inhibition was -6.49%. `COc1ccc(NC(=O)c2nn(C)c3c2CS(=O)(=O)c2ccccc2-3)cc1Cl` showed an inhibition of -0.537%. For `CC(C)Nc1ccc(-c2nc(-c3ccncc3)no2)cc1[N+](=O)[O-]`, the inhibition was 18.4%. `COc1ccc(N2CCN(Cc3nc4c(c(=O)[nH]c(=O)n4C)n3Cc3ccc(C)cc3)CC2)cc1` was tested, and the inhibition was -5.8%. Work on `COc1ccc(N(CC(=O)NC(C)c2ccccc2)S(=O)(=O)c2c(C)nn(C)c2C)cc1` (stereo unspecified) yielded an inhibition of -3.15%. Work on `CCOC(=O)c1c(C)[nH]c(C)c1S(=O)(=O)N1CCCC(C(=O)N2CCN(c3ccccc3F)CC2)C1` (stereo unspecified) yielded an inhibition of 4.37%. `CCc1nn(CC(=O)N2CCN(c3cccc(OC)c3)CC2)c(=O)c2cc3occc3n12` was tested, and the inhibition was 12.2%. In the case of `Cc1ccc(NC(=O)CN2C(=O)CCc3ccccc32)cc1C`, the inhibition is reported as 3.5%. `Cc1ccc(OCc2nc(-c3ccc(C(=O)NCCc4ccc(Cl)cc4)cc3)oc2C)cc1` showed an inhibition of 1.49%. With `Cn1c(=O)c2sccc2n2c(CCC(=O)N3CCN(c4ccc(F)cc4)CC3)nnc12` the inhibition was -0.0302%. `CCCCc1ccc(NC(=O)c2cc(-c3ccc(C)c(F)c3)on2)cc1` gave an inhibition of 24.9%. In the case of `CCC(=O)N1CCc2cc(S(=O)(=O)NCCC(=O)N3CCN(c4ccccc4)CC3)ccc21`, the inhibition is reported as active: 34.3%. Molecule `COc1ccccc1NC(=O)CSc1nc(O)c(C/C=C/c2ccccc2)c(=O)[nH]1` has an inhibition of 6.69%. For `CCc1nnc(NC(=O)CSc2nccn2Cc2ccc(C)cc2)s1`, the inhibition was 3.18%. For `COc1ccc(CNC(=O)c2nc(SCc3ccc(C)cc3)ncc2Cl)cc1`, the inhibition was -24%. With `COc1ccc(Cn2c(=O)n(-c3ccc(F)c(Cl)c3)c(=O)c3c2c2cc(OC)ccc2n3C)cc1` the inhibition was -3.78%. `O=C(NCCCN1CCOCC1)c1ccc([N+](=O)[O-])cc1[N+](=O)[O-]` was tested, and the inhibition was active: 48.1%. In the case of `CCOC(=O)c1c(S(=O)(=O)N2CCC(C(=O)NCc3cccc(C)c3)CC2)c(C)n(C)c1C`, the inhibition is reported as 9.82%. For `COC(=O)c1ccc(NC(=O)CN2CCN(CCO)CC2)cc1`, the inhibition was active: 33.2%. For `Cc1cc(N2CCN(C)CC2)nc2ccc(NC(=O)c3ccc(C(C)(C)C)cc3)cc12`, the inhibition was -2.87%. `Cc1ccc(-n2nc(C(=O)Nc3ccc(F)cc3Cl)c(=O)n(C)c2=O)cc1` showed an inhibition of 10.7%. With `CN(Cc1ccccc1)c1nnc(NC(=O)Nc2cccc(Br)c2)s1` the inhibition was 11.4%. `Cc1ccc(C(=O)n2nc(C)c(S(=O)(=O)N3CCCCCC3)c2C)cc1C` gave an inhibition of 12.6%. For `COc1ccc(N2CC(NC(=O)c3cccs3)CC2=O)cc1` (stereo unspecified), the inhibition was -19.6%. `COC(=O)Cn1c(=NC(=O)c2ccc3c(c2)OCCO3)sc2ccccc21` showed an inhibition of -24.6%.
